Assay results reported in paper PMC4265154, “A reversible Renilla luciferase protein complementation assay for rapid identification of protein–protein interactions reveals the existence of an interaction network involved in xyloglucan biosynthesis in the plant Golgi apparatus” (Journal of Experimental Botany, 2014).
These are yes or no findings as the source states them, for the method shown. Binding seen in cells or lysates may run through a third protein. Tags and fused reporters may be left off the sequences shown.

T1: IRREGULAR XYLEM9 (IRX9) fused to hRluc fragment [F1] or [F2] (Arabidopsis thaliana) (UniProt Q9ZQC6)
T1 sequence: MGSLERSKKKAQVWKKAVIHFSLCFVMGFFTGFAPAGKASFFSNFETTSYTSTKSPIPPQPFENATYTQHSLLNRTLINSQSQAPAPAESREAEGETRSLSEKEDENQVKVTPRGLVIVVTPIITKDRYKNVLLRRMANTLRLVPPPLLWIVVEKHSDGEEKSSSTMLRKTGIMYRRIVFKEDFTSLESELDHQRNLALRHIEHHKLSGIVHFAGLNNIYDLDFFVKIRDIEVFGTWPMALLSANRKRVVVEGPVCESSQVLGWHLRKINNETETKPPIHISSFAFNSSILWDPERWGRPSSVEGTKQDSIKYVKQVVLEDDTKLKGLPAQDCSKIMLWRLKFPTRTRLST

T2: IRX10 fused to hRluc fragment [F1] or [F2] (Arabidopsis thaliana) (UniProt Q9FZJ1)
T2 sequence: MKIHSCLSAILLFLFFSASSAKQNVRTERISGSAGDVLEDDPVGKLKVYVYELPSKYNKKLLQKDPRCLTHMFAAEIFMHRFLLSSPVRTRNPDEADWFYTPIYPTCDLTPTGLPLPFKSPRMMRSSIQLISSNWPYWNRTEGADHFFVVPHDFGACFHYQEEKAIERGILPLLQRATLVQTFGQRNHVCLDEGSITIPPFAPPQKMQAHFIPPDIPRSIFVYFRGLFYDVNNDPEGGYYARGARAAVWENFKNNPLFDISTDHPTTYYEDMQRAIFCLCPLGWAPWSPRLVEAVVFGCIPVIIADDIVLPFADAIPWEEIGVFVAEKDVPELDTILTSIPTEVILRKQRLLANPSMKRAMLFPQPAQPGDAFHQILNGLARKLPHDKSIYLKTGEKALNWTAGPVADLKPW

T3: IRX10-L fused to hRluc fragment [F1] or [F2] (Arabidopsis thaliana) (UniProt Q940Q8)
T3 sequence: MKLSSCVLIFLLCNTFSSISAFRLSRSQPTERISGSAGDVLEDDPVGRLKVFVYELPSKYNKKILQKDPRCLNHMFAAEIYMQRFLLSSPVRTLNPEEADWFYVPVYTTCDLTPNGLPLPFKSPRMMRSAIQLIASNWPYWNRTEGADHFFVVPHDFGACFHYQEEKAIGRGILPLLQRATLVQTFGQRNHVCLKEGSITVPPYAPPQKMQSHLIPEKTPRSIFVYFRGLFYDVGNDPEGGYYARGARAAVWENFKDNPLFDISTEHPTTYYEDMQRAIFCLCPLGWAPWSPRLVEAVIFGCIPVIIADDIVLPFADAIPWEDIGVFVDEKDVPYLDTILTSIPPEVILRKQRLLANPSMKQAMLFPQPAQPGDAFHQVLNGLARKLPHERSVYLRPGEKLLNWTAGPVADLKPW

T4: IRX14 fused to hRluc fragment [F1] or [F2] (Arabidopsis thaliana) (UniProt Q8L707)
T4 sequence: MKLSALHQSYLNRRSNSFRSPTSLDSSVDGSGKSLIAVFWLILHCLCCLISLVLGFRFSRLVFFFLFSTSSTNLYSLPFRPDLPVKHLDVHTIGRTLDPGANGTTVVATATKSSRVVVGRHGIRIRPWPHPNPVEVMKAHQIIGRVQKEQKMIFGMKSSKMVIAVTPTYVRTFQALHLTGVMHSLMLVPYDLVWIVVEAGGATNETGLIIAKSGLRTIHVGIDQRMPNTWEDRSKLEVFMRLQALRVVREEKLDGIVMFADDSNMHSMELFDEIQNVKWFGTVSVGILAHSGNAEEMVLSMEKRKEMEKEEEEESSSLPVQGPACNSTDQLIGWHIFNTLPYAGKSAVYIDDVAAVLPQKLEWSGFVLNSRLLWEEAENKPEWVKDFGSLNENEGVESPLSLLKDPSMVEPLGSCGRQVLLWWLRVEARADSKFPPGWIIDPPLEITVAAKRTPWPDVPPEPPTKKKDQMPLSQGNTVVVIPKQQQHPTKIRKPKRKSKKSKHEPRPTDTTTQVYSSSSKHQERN

T5: ARABINAN …1 (ARAD1) fused to hRluc fragment [F1] or [F2] (Arabidopsis thaliana) (UniProt Q6DBG8)
T5 sequence: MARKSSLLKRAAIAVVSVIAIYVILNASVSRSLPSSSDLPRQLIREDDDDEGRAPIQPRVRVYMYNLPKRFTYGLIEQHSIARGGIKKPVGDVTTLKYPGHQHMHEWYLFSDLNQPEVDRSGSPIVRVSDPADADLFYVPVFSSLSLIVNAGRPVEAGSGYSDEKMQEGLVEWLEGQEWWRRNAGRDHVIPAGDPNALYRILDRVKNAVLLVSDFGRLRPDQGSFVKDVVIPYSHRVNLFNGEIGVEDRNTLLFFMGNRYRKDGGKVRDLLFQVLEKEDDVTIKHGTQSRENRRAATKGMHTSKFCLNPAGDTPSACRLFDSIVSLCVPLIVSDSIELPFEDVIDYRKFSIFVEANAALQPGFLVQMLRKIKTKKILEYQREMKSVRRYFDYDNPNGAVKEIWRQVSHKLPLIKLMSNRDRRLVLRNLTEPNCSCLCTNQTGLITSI


How the values were obtained:
Experiment in all cases: split reporter; Rluc-PCA: proteins with C-terminal hRluc[F1]-HA and hRluc[F2]-FLAG co-expressed with p19 in N. benthamiana leaves for 72 h (Agrobacterium OD600 0.2 each, p19 0.05); pooled leaf discs macerated in 0.5 M NaCl, 0.1 M potassium phosphate pH 7.4, 1 mM EDTA, 0.02% BSA, protease inhibitors; 10 uM coelenterazine-h, luminescence 30 s; compared with p19 alone
[1] = biological target: T1, IRREGULAR XYLEM9 (IRX9) fused to hRluc fragment [F1] or [F2] (Arabidopsis thaliana)
[2] = biological target: T2, IRX10 fused to hRluc fragment [F1] or [F2] (Arabidopsis thaliana)
[3] = biological target: T3, IRX10-L fused to hRluc fragment [F1] or [F2] (Arabidopsis thaliana)
[4] = biological target: T4, IRX14 fused to hRluc fragment [F1] or [F2] (Arabidopsis thaliana)
[5] = biological target: T5, ARABINAN …1 (ARAD1) fused to hRluc fragment [F1] or [F2] (Arabidopsis thaliana)
[6] = biological target: GALACTURONO…7 (GAUT7) fused to hRluc fragment [F1] or [F2] (Arabidopsis thaliana) (UniProt Q9ZVI7)

| binding [1] | binding [2] | binding [3] | binding [4] | binding [5] | binding [6] | Binder |
| --- | --- | --- | --- | --- | --- | --- |
| no binding | no binding | no binding | no binding |  |  | IRREGULAR XYLEM9 (IRX9) fused to hRluc fragment [F1] or [F2] (protein, UniProt Q9ZQC6 1-351) MGSLERSKKKAQVWKKAVIHFSLCFVMGFFTGFAPAGKASFFSNFETTSYTSTKSPIPPQPFENATYTQHSLLNRTLINSQSQAPAPAESREAEGETRSLSEKEDENQVKVTPRGLVIVVTPIITKDRYKNVLLRRMANTLRLVPPPLLWIVVEKHSDGEEKSSSTMLRKTGIMYRRIVFKEDFTSLESELDHQRNLALRHIEHHKLSGIVHFAGLNNIYDLDFFVKIRDIEVFGTWPMALLSANRKRVVVEGPVCESSQVLGWHLRKINNETETKPPIHISSFAFNSSILWDPERWGRPSSVEGTKQDSIKYVKQVVLEDDTKLKGLPAQDCSKIMLWRLKFPTRTRLST |
| no binding |  |  |  | no binding | no binding | GALACTURONOSYLTRANSFERASE7 (GAUT7) fused to hRluc fragment [F1] or [F2] (natural protein, Arabidopsis thaliana, UniProt Q9ZVI7 1-619, looked up, Made in two forms, one with [F1]-HA and one with [F2]-FLAG; a chain carries one of the two; also called GAUT7-[F1]; GAUT7-[F2]; source: N. benthamiana leaves, transient expression (A. tumefaciens GV3101, with p19), in crude leaf macerate; not shown: hRluc[F1]; (Renilla luciferase residues 1-110) with HA, C-terminal, kept; hRluc[F2]; (Renilla luciferase residues 111-310) with FLAG, C-terminal, kept) MKGGGGGGGGGGGGKRRWKVLVIGVLVLVILSMLVPLAFLLGLHNGFHSPGFVTVQPASSFESFTRINATKHTQRDVSERVDEVLQKINPVLPKKSDINVGSRDVNATSGTDSKKRGLPVSPTVVANPSPANKTKSEASYTGVQRKIVSGDETWRTCEVKYGSYCLWREENKEPMKDAKVKQMKDQLFVARAYYPSIAKMPSQSKLTRDMKQNIQEFERILSESSQDADLPPQVDKKLQKMEAVIAKAKSFPVDCNNVDKKLRQILDLTEDEASFHMKQSVFLYQLAVQTMPKSLHCLSMRLTVEHFKSDSLEDPISEKFSDPSLLHFVIISDNILASSVVINSTVVHARDSKNFVFHVLTDEQNYFAMKQWFIRNPCKQSTVQVLNIEKLELDDSDMKLSLSAEFRVSFPSGDLLASQQNRTHYLSLFSQSHYLLPKLFDKLEKVVILDDDVVVQRDLSPLWDLDMEGKVNGAVKSCTVRLGQLRSLKRGNFDTNACLWMSGLNVVDLARWRALGVSETYQKYYKEMSSGDESSEAIALQASLLTFQDQVYALDDKWALSGLGYDYYINAQAIKNAAILHYNGNMKPWLELGIPNYKNYWRRHLSREDRFLSDCNVNP |
